According to PMC4336329 (PLoS ONE, 2015):
In all, about 310,000 compounds went through this assay and about 2,200 (0.71%) showed an effect of 50% or more. The effect is printed as a negative number. The list shows a part of the results.

Molecular target: human ether-à-go-go-related gene (hERG) potassium channel (human, UniProt Q12809)
Experiment: primary screen, population patch clamp on CHO cells stably expressing hERG

Chain of human ether-à-go-go-related gene (hERG) potassium channel (Q12809 whole entry, looked up): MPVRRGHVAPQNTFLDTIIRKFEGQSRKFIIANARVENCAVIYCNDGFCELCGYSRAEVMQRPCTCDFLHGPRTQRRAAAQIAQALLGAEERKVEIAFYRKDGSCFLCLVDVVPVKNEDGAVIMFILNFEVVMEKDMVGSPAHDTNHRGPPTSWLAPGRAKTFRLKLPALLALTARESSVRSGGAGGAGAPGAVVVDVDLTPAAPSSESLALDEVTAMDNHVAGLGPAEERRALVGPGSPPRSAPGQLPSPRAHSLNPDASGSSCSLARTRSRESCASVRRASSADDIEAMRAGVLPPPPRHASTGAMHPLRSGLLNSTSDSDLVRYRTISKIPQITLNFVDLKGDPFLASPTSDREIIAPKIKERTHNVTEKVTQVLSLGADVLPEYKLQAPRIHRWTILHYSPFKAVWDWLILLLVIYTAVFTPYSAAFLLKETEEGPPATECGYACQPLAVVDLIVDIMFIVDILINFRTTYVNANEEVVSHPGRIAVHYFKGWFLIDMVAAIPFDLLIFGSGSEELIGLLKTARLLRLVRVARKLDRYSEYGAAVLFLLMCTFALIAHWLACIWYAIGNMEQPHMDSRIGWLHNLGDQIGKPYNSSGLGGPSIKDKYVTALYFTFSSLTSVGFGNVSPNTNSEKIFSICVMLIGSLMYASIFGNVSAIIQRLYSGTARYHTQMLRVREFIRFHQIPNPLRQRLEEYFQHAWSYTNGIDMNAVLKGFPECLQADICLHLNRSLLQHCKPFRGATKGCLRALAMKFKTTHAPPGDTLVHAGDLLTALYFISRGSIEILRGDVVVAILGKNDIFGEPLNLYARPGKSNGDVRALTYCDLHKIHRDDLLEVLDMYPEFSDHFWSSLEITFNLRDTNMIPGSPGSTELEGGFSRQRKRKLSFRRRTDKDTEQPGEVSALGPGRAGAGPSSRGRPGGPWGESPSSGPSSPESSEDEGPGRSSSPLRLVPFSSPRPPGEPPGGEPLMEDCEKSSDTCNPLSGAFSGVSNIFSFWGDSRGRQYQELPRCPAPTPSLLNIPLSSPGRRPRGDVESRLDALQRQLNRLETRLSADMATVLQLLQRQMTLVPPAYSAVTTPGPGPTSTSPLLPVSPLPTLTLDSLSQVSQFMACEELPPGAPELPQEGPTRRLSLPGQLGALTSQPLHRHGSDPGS

| SMILES | hERG current change (%, negative = inhibition) at 1uM [%] |
| --- | --- |
| CCc1nnc(NS(=O)(=O)c2ccc(N/C=C(\C=O)c3nc4cc(Cl)ccc4o3)cc2)s1 | 13.9 |
| Cc1nn(Cc2nc(-c3cccs3)no2)c(C)c1Br | 5.21 |
| COc1ccc(NC(=O)N2CCCC(c3ccccc3)C2)cc1 (centres unmarked) | 6.78 |
| COc1ccc(OC)c(NC(=O)CN(c2ccc(C(C)C)cc2)S(=O)(=O)c2c(C)noc2C)c1 | 10.2 |
| Fc1ccc(CSc2nnc(-c3cccs3)o2)cc1 | 3.22 |
| CCOc1cc(/C=C2/SC(=S)NC2=O)ccc1OC(=O)c1ccco1 | 14.3 |
| CC(=O)c1c(N2CCN(CCO)CC2)nc(=S)n(-c2ccccc2)c1C | 4.96 |
| CCC(C)(C)NC(=O)c1ccc2c(c1)OCCO2 | 12 |
| O=C(NCC1CCCO1)c1sc2cc(Cl)ccc2c1Cl (centres unmarked) | 11.4 |
| CCC(=NCC1CCCO1)c1c(O)n(-c2ccccc2)c(=O)[nH]c1=O (centres unmarked) | 7.58 |
| COc1ccc(Br)c(C(=O)Nc2ccc(F)cc2)c1 | 4.38 |
| O=C(COc1cccc2cccnc12)Nc1ccccc1 | 6.39 |
| CCCCc1nnc(SCC(=O)Nc2nccs2)n1CC | 12.9 |
| CN(C)c1ccc(/C=C2\CCCc3c2nc2ccccc2c3C(=O)O)cc1 | 15.2 |
| CN(C)C(=O)c1ccccc1Sc1ccc(Cl)cc1Cl | -27.3 |
| CCOC(=O)C1=C(C)N(C)C(=S)NC1c1ccc(Cl)cc1 (centres unmarked) | 9.34 |
| COc1ccc(CC(=O)Nn2c(-c3ccccc3)nc3ccccc3c2=O)cc1 | 4.63 |
| O=C(CSc1nnc2n(C3CCCC3)c(=O)c3ccccc3n12)N1CCCCCC1 | -4.8 |
| O=C(Nc1ccc(Cl)c(Cl)c1)OCc1cnc(Cl)s1 | 4.53 |
| COc1ccc(OC)c(-c2csc(NC(=O)CSc3ccc([N+](=O)[O-])cc3)n2)c1 | 14.9 |
| CC1Oc2ccccc2N(CC(=O)Nc2ccccc2F)C1=O (centres unmarked) | 19.1 |
| Cn1c(SCC(=O)NCc2ccccc2)ncc(C(=O)Nc2ccccc2)c1=O | -8.46 |

| SMILES | hERG current change (%, negative = inhibition) at 1uM [%] |
| --- | --- |
| Cc1c(C(N)=O)sc2nc(-c3ccccc3)cn12 | 3.67 |
| C=CCNC(=O)c1cc2c(=O)n3cccc(C)c3nc2s1 | 8.75 |
| OC(COc1ccc(-c2ccccc2)cc1)CN1CCOCC1 (centres unmarked) | 5.23 |
| O=C(COc1ccccc1Cl)Nc1ccccc1C(=O)N1CCOCC1 | -7.15 |
| Cc1ccc(NC(=O)Nc2ccc(S(N)(=O)=O)cc2)cc1 | 2.75 |
| COc1cc(/C=N/NC(=O)Cn2ccc(C(F)(F)F)n2)cc(OC)c1OC | 5.05 |
| CNCC(O)c1ccc(OC(=O)C(C)(C)C)c(OC(=O)C(C)(C)C)c1.Cl (centres unmarked) | 10.3 |
| COc1ccc(NC2CCCCC2NS(=O)(=O)c2ccc(C)cc2)cc1 (centres unmarked) | 13.2 |
| COCCNS(=O)(=O)c1ccc2c(c1)Cc1cc(S(=O)(=O)NCCOC)ccc1-2 | -2.46 |
| CC(C(=O)N1CCOCC1)(c1ccccc1)c1ccccc1 | 10.4 |
| CN(C)S(=O)(=O)c1ccc(/C(O)=C2/C(=O)C(=O)N(CCCN3CCOCC3)C2c2ccncc2)cc1 (centres unmarked) | 15 |
| O=C1NCCCC1C(=O)N1CCN(C(c2ccccc2)c2ccccc2)CC1 (centres unmarked) | -1.39 |
| O=C(N/N=C/c1cccnc1)c1cc(-c2ccccc2)nc2ccccc12 | -0.466 |
| COc1ccc(OC)c(NC(=O)COC(=O)/C=C/c2ccccc2Cl)c1 | 5.99 |
| O=S(=O)(Nc1ccc(N2CCOCC2)cc1)c1ccccc1 | 13.8 |
| COc1cc2c3nnc(-c4ccc(F)cc4)c-3cn(Cc3ccc(F)cc3)c2cc1OC | -5.13 |
| Cl.Oc1ccc(-c2csc(Nc3cccc4ccccc34)n2)cc1O | 11.8 |
| CCC(C)[C@H](N)c1nnc(SCc2cccc(F)c2)o1.Cl (some centres unmarked) | 17.7 |
| CCOc1ccccc1C1C(C(=O)OC)=C(N)OC2=C1C(=O)CCC2 (centres unmarked) | 6.69 |
| CCN=c1scc(-c2ccccc2)n1/N=C/c1ccccn1 | 2.12 |
| CC(C)(CN1CCCC1)NS(=O)(=O)c1ccccc1.Cl | 12.7 |
| O=C(COC(=O)c1cc(S(=O)(=O)N2CCOCC2)c(Cl)cc1Cl)Nc1ncc(C(F)(F)F)cc1Cl | 9.27 |
